Experimental data as given in the supplement of paper PMC8821664.
Counter-ions that a name gives are not always drawn. The list shows a part of the results. Most values come without repeats; read them as rough. Positions of bridges follow the written chain, without caps; N, C: chain ends. Non-standard residues stand in square brackets, D forms with d. Residues, ends and D or L forms follow the SMILES beside them. *: point of attachment. Ileψ(thiazoline)Cys = CC[C@H](C)[C@H](N)C1=N[C@H](C(=O)*)CS1; dOrn = NCCC[C@@H](N)C(=O)O

system: Beas-2B AQP5-HiBiT reporter cells; experiment: AQP5-HiBiT luminescence relative to vehicle (ratio to vehicle); higher = higher AQP5-HiBiT protein abundance; conditions: 10 µM; 18 h
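Further: monoclonal Beas-2B line stably carrying CMV promoter-driven AQP5-HiBiT, 5,000 cells per well in 384-well plates, lytic HiBiT plus LgBiT NanoLuc luminescence, FDA-approved drug library screen.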

`Cc1ccc(O)c([C@H](CCN(C(C)C)C(C)C)c2ccccc2)c1` [Tolterodine tartrate] was tested. Which AQP5-HiBiT luminescence did it give?
The AQP5-HiBiT luminescence was 1.22.

How did the AQP5-HiBiT luminescence turn out when `C[C@H]1CN(C[C@H](Cc2ccccc2)C(=O)NCC(=O)O)CC[C@@]1(C)c1cccc(O)c1` [Alvimopan] was run?
Its AQP5-HiBiT luminescence is 0.733.

Which AQP5-HiBiT luminescence does the source give for `COc1ccc2cc([C@H](C)C(=O)O)ccc2c1` [Naproxen sodium] here?
The AQP5-HiBiT luminescence was 0.639.

`O=S(=O)(O)CCS` [Mesna] was tested. Which AQP5-HiBiT luminescence did it give?
Its AQP5-HiBiT luminescence is 0.891.

How did the AQP5-HiBiT luminescence turn out when `C[C@H](CS)C(=O)N1CCC[C@H]1C(=O)O` [Captopril] was run?
Its AQP5-HiBiT luminescence is 0.994.

`Nc1cc(-c2ccncc2)c[nH]c1=O` [Amrinone] was tested. Which AQP5-HiBiT luminescence did it give?
Its AQP5-HiBiT luminescence is 1.

For `Cc1ncc(C[n+]2csc(CCO)c2C)c(N)n1` [Thiamine hydrochloride], which AQP5-HiBiT luminescence is on record?
The AQP5-HiBiT luminescence was 1.01.

With `C[C@@](Cc1ccc(O)c(O)c1)(NN)C(=O)O` [Carbidopa Hydrate] as the compound, how does the AQP5-HiBiT luminescence read?
Its AQP5-HiBiT luminescence is 0.606.

Which AQP5-HiBiT luminescence does the source give for `NCCCC(O)(P(=O)(O)O)P(=O)(O)O` [Alendronate] here?
Its AQP5-HiBiT luminescence is 0.818.

How did the AQP5-HiBiT luminescence turn out when `COC(=O)N[C@H](C(=O)N1CCC[C@H]1c1ncc(-c2ccc(-c3ccc(-c4cnc([C@@H]5CCCN5C(=O)[C@@H](NC(=O)OC)C(C)C)[nH]4)cc3)cc2)[nH]1)C(C)C` was run?
The AQP5-HiBiT luminescence was 1.29.

For `CCc1cccc2c3c([nH]c12)C(CC)(CC(=O)O)OCC3` (stereo not drawn) [Etodolac], which AQP5-HiBiT luminescence is on record?
The AQP5-HiBiT luminescence was 0.657.

How did the AQP5-HiBiT luminescence turn out when `O=C1CN2Cc3c(ccc(Cl)c3Cl)N=C2N1` [Anagrelide] was run?
The AQP5-HiBiT luminescence was 0.816.

`CCN(CC)CCNC(=O)c1ccc(N)cc1` [Procainamide hydrochloride] was tested. Which AQP5-HiBiT luminescence did it give?
Its AQP5-HiBiT luminescence is 0.72.

Which AQP5-HiBiT luminescence does the source give for `COc1ccccc1OCCNCC(O)COc1cccc2[nH]c3ccccc3c12` (stereo not drawn) [Carvedilol] here?
The AQP5-HiBiT luminescence was 1.2.

How did the AQP5-HiBiT luminescence turn out when `Cn1c(=O)c2nc[nH]c2n(C)c1=O` [Theophylline monohydrate] was run?
Its AQP5-HiBiT luminescence is 0.676.

With `C[C@@H](O)[C@@H]1NC(=O)[C@H](CCCCN)NC(=O)[C@@H](Cc2c[nH]c3ccccc23)NC(=O)[C@H](Cc2ccccc2)NC(=O)[C@@H](NC(=O)[C@H](N)Cc2ccccc2)CSSC[C@@H](C(=O)N[C@H](CO)[C@@H](C)O)NC1=O` [Octreotide Acetate] as the compound, how does the AQP5-HiBiT luminescence read?
Its AQP5-HiBiT luminescence is 1.01.

`COc1ccc(-n2nc(C(N)=O)c3c2C(=O)N(c2ccc(N4CCCCC4=O)cc2)CC3)cc1` [Apixaban] was tested. Which AQP5-HiBiT luminescence did it give?
The AQP5-HiBiT luminescence was 0.849.

`COC(=O)C1=C(C)NC(C)=C(C(=O)OCC(C)C)C1c1ccccc1[N+](=O)[O-]` (stereo not drawn) [Nisoldipine] was tested. Which AQP5-HiBiT luminescence did it give?
The AQP5-HiBiT luminescence was 0.92.

`COC(=O)Nc1nc2cc(C(=O)c3ccccc3)ccc2[nH]1` [Mebendazole] was tested. Which AQP5-HiBiT luminescence did it give?
The AQP5-HiBiT luminescence was 2.54.

`C[C@@H](O[C@H]1OCCN(Cc2nn(P(=O)(O)O)c(=O)[nH]2)[C@H]1c1ccc(F)cc1)c1cc(C(F)(F)F)cc(C(F)(F)F)c1` [Fosaprepitant dimeglumine] was tested. Which AQP5-HiBiT luminescence did it give?
The AQP5-HiBiT luminescence was 0.851.

For `CO/N=C(\C(=O)N[C@@H]1C(=O)N2C(C(=O)O)=C(CSc3nc(=O)c(O)nn3C)CS[C@H]12)c1csc(N)n1` [Ceftriaxone sodium], which AQP5-HiBiT luminescence is on record?
The AQP5-HiBiT luminescence was 0.846.

How did the AQP5-HiBiT luminescence turn out when `CC[C@H](C)[C@H](N)C1=N[C@H](C(=O)N[C@@H](CC(C)C)C(=O)N[C@H](CCC(=O)[O-])C(=O)N[C@H](C(=O)N[C@H]2CCCCNC(=O)[C@H](CC(N)=O)NC(=O)[C@@H](CC(=O)[O-])NC(=O)[C@H](Cc3cnc[nH]3)NC(=O)[C@@H](Cc3ccccc3)NC(=O)[C@H]([C@@H](C)CC)NC(=O)[C@@H](CCCN)NC2=O)[C@@H](C)CC)CS1.[Zn+2]` [Zinc bacitracin] ({Ileψ(thiazoline)Cys}-L[dE]IK[dOrn]I[dF]H[dD]N; lactam 4-C) was run?
The AQP5-HiBiT luminescence was 0.876.

With `CC(C)C[C@H](NC(=O)[C@H](CCc1ccccc1)NC(=O)CN1CCOCC1)C(=O)N[C@@H](Cc1ccccc1)C(=O)N[C@@H](CC(C)C)C(=O)[C@@]1(C)CO1` [Carfilzomib (PR-171)] as the compound, how does the AQP5-HiBiT luminescence read?
Its AQP5-HiBiT luminescence is 126.

How did the AQP5-HiBiT luminescence turn out when `CCOc1ccccc1OCCN[C@H](C)Cc1ccc(OC)c(S(N)(=O)=O)c1` [Tamsulosin hydrochloride] was run?
The AQP5-HiBiT luminescence was 1.12.

How did the AQP5-HiBiT luminescence turn out when `CS(=O)(=O)CCNCc1ccc(-c2ccc3ncnc(Nc4ccc(OCc5cccc(F)c5)c(Cl)c4)c3c2)o1` [Lapatinib] was run?
The AQP5-HiBiT luminescence was 0.895.

With `CCCCC(O)c1ccccc1` (stereo not drawn) [Fenipentol] as the compound, how does the AQP5-HiBiT luminescence read?
Its AQP5-HiBiT luminescence is 1.09.

For `CCC(=O)OCC(=O)[C@@]1(OC(=O)CC)[C@@H](C)C[C@H]2[C@@H]3CCC4=CC(=O)C=C[C@]4(C)[C@@]3(Cl)[C@@H](O)C[C@@]21C` [Beclomethasone dipropionate], which AQP5-HiBiT luminescence is on record?
The AQP5-HiBiT luminescence was 0.579.

How did the AQP5-HiBiT luminescence turn out when `COc1ccc(CNc2nc(N3CCC[C@H]3CO)ncc2C(=O)NCc2ncccn2)cc1Cl` [Avanafil] was run?
The AQP5-HiBiT luminescence was 0.662.
